Results taken from PubChem BioAssay AID1508623 (National Center for Advancing Translational Sciences (NCATS), 2021).
Out of some 48,000 compounds screened, about 450 (0.94%) were called active. Inconclusive results (about 19%) are left out. The call rests on the fitted dose curve; in most records, active means well fitted inhibition curve with a large enough effect; inconclusive means small, poorly fitted or top-dose-only effect; inactive means no such curve, though single readings can be large or run the other way. This is one part of the list.

Experiment: Primary qHTS for Identification of Small Molecule Inhibitors of Huntingtin Promoter Activity; further: nearly all actives have a fitted effect of over 50% in size
Details: HEK293 HTT promoter firefly luciferase reporter (activity 0% = vehicle and -100% = no light), 24 h; series mostly up to 57.5 µM; activity change, negative = inhibition: at the top concentration
Summary of the method: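 HEK293 Fluc reporter, 2,500 cells/well, 24 h pre-culture; cpds up to 57.5 uM final, 24 h 37 degrees C; Dual-Glo, 10 min RT; normalized vehicle = 0%, zero RLU = -100%.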

Activity change, negative = inhibition, inactive:
COc1ccc(-c2cc(C(F)(F)F)nc(SCC(=O)N3CCCCC3)n2)cc1OC -17.2%
COc1ccc(OC)c(S(=O)(=O)N2Cc3ccccc3CC2C(=O)Nc2ccc(C)cc2C)c1 (stereo unspecified) -27.4%
CCS(=O)(=O)N1CCc2cc(C(=O)N3CCN(c4ccc(OC)cc4)CC3)ccc21 -10.8%
CCc1cccc(C)c1NC(=O)C(CC)n1nc(C)c2c(C)n(-c3ccccc3)nc2c1=O (stereo unspecified) -27.7%
COc1ccc(-c2nc(SCC(=O)Nc3ccccc3)c(-c3ccc(F)cc3)[nH]2)cc1OC -26.2%
COC(=O)c1sccc1S(=O)(=O)N(CC(=O)NCc1ccccc1)c1ccc(C)c(C)c1 -3.19%
Cn1nnnc1SCCNCc1ccc(OCc2ccccc2)cc1 1.86%
COc1ccc(NC(=O)CSc2nnc3scc(-c4ccc(Cl)cc4)n23)cc1 -15.1%
CCOC(=O)c1c(C)c(-c2ccccc2)n(CC(=O)Nc2cccc(F)c2)c1C 1.05%
CCOc1ccc(NC(=O)CCS(=O)(=O)c2ccc(Br)s2)cc1 -13.6%
Cc1cccc(NC(=O)CN2C(=O)COc3ccc(S(=O)(=O)N4CCC(C)CC4)cc32)c1C -13.2%
CCN(CC)CCCNC(=O)c1nn(-c2ccc(OC)c(Cl)c2)c(=O)c2c1c1ccccc1n2C -0.969%
Cc1ccc(CNC(=O)Cn2c(=O)n(-c3ccc(C)c(F)c3)c(=O)c3sc4ccccc4c32)cc1 -13.8%
O=C(Nc1noc2ccccc12)c1c(F)cccc1F 23.6%
O=C(Nc1cc(F)ccc1F)c1ccc2c(c1)nnn2C1CCCC1 20%
CCOc1ccc(-c2nc3c(C#N)c[nH]n3c2NC2CCCCC2)cc1 -4.2%
CC1(C)CO[C@@H](CC(=O)O)CN1 12.1%
CCOC(=O)C1CCN(C(=O)C2CCN(c3nnc(C)c4c(C)n(-c5ccccc5)nc34)CC2)CC1 13.6%
CCCC(=O)Nc1cc(C(=O)NCc2ccc(OC)cc2)ccc1S(=O)(=O)c1ccc(Cl)cc1 18.1%
Cc1nn(CC(=O)NCc2ccccc2Cl)c(=O)c2cccn12 17.9%
CC(=O)Oc1ccc(C)cc1 9.83%
COc1ccc(-c2cc(OC(=O)c3ccc(F)cc3)c3c(C)oc(C)c3c(=O)c2)cc1OC -15.7%
Cc1ccc(Cc2c(C)nn(-c3nc(C)c(C(=O)N4CCCCC4C)s3)c2C)cc1 (stereo unspecified) -9.08%
COc1ccc(NC(=O)C2CCCN(S(=O)(=O)c3c(C)n[nH]c3C)C2)cc1OC (stereo unspecified) -27.9%
Cc1cccc(NC(=O)CN2c3ccccc3S(=O)(=O)c3ccccc32)c1C 0%
CCC(=O)N1CCc2cc(S(=O)(=O)NC(C(=O)NCCc3ccc(Cl)cc3)C(C)C)ccc21 (stereo unspecified) -1.08%
COc1ccc(NC(=O)C2CCCN(S(=O)(=O)c3ccc(Cl)cc3)C2)cc1 (stereo unspecified) -5.67%
Cc1ccc(C)c(N2CCN(c3nccn4nc(-c5ccc(Br)cc5)cc34)CC2)c1 -2.69%
Cc1ccc(Cl)cc1NC(=O)C(NS(=O)(=O)c1cccc2nsnc12)c1ccccc1 (stereo unspecified) -34.5%
O=C(COCc1cc(-c2cccs2)on1)NCc1ccccc1Cl -27.5%
COc1cc(C2c3c(oc4ccccc4c3=O)C(=O)N2c2nc(C)c(C)s2)ccc1O (stereo unspecified) -20.7% [at 11.5 µM]
Cc1nc2nc(NC(=O)c3ccc(F)cc3)[nH]n2c(=O)c1Cc1ccccc1 1.4%
Cc1c(C(=O)OC2CCCCC2)[nH]c2c1C(=O)CC(c1ccccc1Cl)C2 (stereo unspecified) -22.2%
O=C(NCc1ccccc1F)C1CCN(Cc2cc3ccccc3n2Cc2cccc(Cl)c2)CC1 -4.8%
Cn1c(=O)oc2cc(S(=O)(=O)CCC(=O)NCCc3ccccc3)ccc21 8.75%
CC(=O)c1cc(-c2ccc(F)cc2)n(CC(=O)NC(C)c2ccccc2)c1C (stereo unspecified) -11.9%
Cc1cccn2c(=O)c(/C=C(\C#N)c3nc4ccccc4s3)c(Oc3ccc(Br)cc3)nc12 5.28%
Cc1cc(C)n(-c2nnc(Nc3ccc(C(C)C)cc3)c3ccccc23)n1 -30.7%
NCCNC(=O)c1ccc(Cl)cn1 6.79%
COc1ccc(CNCc2ccc3c(c2)n(C)c(=O)n3C)cc1 -14.3%
COc1cccc(C(=O)NC(=O)Nc2ccc(-n3nc(C(F)(F)F)cc3C(F)(F)F)cc2)c1 0%
CC(=O)c1ccc(NC(=O)C2=CC(c3cccs3)=NS(=O)(=O)N2C)cc1 -20.5%
COc1cc(Nc2nc(SCc3cccc(Cl)c3)nc3ccccc23)cc(OC)c1 -19.3%
Fc1ccc(Nc2c3c(nc4nncn24)CCC3)cc1 -16.7%
CCN(c1ccccc1)S(=O)(=O)c1ccc(NC(=O)c2cc(=O)c3ccc(C)c(C)c3o2)cc1 -18.7%
Cc1ccc2c(CC(=O)Nc3c(C(=O)c4ccc(F)cc4)oc4ccccc34)coc2c1 -15.1%
Nc1nc(Cl)nc2c1ncn2[C@H]1C[C@H](O)[C@@H](CO)O1 -9.61%
Cn1cc(C(=O)[C@@H]2CCc3nc[nH]c3C2)c2ccccc21 -2.45%
CCC(=O)OCc1cnc(C)c2oc(=O)c(C(=O)Nc3ccc(CC)cc3)cc12 13.5%
CC(NC(=O)C1CCN(C(=O)N2CCOc3ccc(Cl)cc32)CC1)c1ccccc1 (stereo unspecified) -16.5%
COc1ccc(-c2nc3c(c(SCc4cc(C)ccc4C)n2)Cc2c(CO)cnc(C)c2O3)cc1 -8.64%
COc1ccc(N2CCN(C(=O)c3nn(C)c4c3CS(=O)(=O)c3ccccc3-4)CC2)cc1 -9.01%
COc1ccc(CCNC(=O)CS(=O)Cc2nc(-c3ccc(C)cc3)oc2C)cc1OC (stereo unspecified) -25.9%
O=C(CCSCc1ccc(Cl)cc1)N1CCN(c2ccccc2F)CC1 -21.4%
COc1ccccc1Nc1nn2c(=O)c3ccc(C(=O)Nc4ccc(F)cc4)cc3nc2s1 -1.66%
NC(=O)c1cc(S(=O)(=O)NCc2ccc(Br)cc2)cs1 -23.6%
CCOc1ccc2oc(=O)cc(CN3CCN(C(=O)c4cccc(F)c4)CC3)c2c1 -17.2%
CCCN(CCC)CCNC(=O)Cn1ncc2c([nH]c3ccc(C)cc32)c1=O 7%
Cc1cccc(C(=O)O)c1O 10.6%
CCOC(=O)c1ccc(NC(=O)CCc2c(C)n(CC)c3cc(-c4ccccc4OC)nn3c2=O)cc1 -1.97%
CCc1cccc(-n2c(=O)c3cccnc3n2CC(=O)NCc2ccccc2Cl)c1 -26.4%
CCOC(=O)c1[nH]c(C)c(CCC(=O)NCc2ccc(C)cc2)c1C -8.13%
CCOCCCNC(=O)c1cc2c(=O)n3ccccc3nc2s1 53.7%
O=C(/C=C\c1ccc2c(c1)OCO2)NC1CC(=O)N(c2ccc(F)cc2)C1 (stereo unspecified) -20.7%
Cc1ccc(C)c(N2CCN(C(=O)c3cc4cc5ccc(C)cc5nc4s3)CC2)c1 8.9%
CC(C)(C)c1ccc(C(=O)Nc2cc(-c3ccccc3)nn2-c2ccccc2)cc1 -9.91%
Cc1ccc(CNc2nc3c(S(=O)(=O)c4ccc(C)c(C)c4)nnn3c3ccc(Cl)cc23)cc1 10.9%
O=C(CN1CCN(c2ccc(Cl)cc2)CC1)Nc1ccc(Cl)c(C(F)(F)F)c1 -17.3%
Cc1ccc(CSc2oc(-c3ccco3)nc2S(=O)(=O)c2ccc(Br)cc2)cc1 -15%
CC1CCN(C(=O)CSc2nc3c([nH]c4ccccc43)c(=O)n2-c2ccccc2)CC1 0.773%
COc1ccccc1NC(=O)CSc1nnc(-c2nonc2NC(C)=O)n1-c1ccccc1 -27.9%
CCOc1ccc(-n2c(=O)c3c4c(sc3n(Cc3cc(=O)n5cc(Cl)ccc5n3)c2=O)CCC4)cc1 19.3%
CCc1ccc(NC(=O)Cn2c(=O)n(Cc3nc(C)no3)c(=O)c3cc4c(cc32)OCO4)cc1 -2.02%
CCc1ccccc1NC(=O)Cn1nnc(C(=O)Nc2ccc(OC)c(OC)c2)c1N -2.88%
CCCCN(Cc1ccco1)C(=O)c1cc2c(s1)-c1c(C)cccc1OC2 -24.6%
CCOC(=O)c1ccccc1NC(=O)c1nn(-c2ccc(C)cc2)c(=O)n(C)c1=O 0.431%
Cc1c(NC(=O)C(F)(F)F)ccc2nc3c(=O)n(C)c(=O)n(C)c3nc12 0%
CCOCCCNC(=O)Cn1cc2c(n1)-c1c(oc(C(=O)N3CCCC3)c1C)CC2 -15.2%
COc1c(Cl)cc(Cl)cc1/C=C(\C#N)c1nc(-c2ccc(Cl)cc2)cs1 -36.8%
COc1ccc(-n2ncc(C(=O)NCCCN3CCCCC3)c2C2CCN(C(=O)OC(C)(C)C)CC2)cc1 -8.17%
COc1ccc(-c2cc(-c3ccc4c(c3)NC(=O)CO4)nc3c2COc2ccc(C)cc2-3)cc1 -10.9%
CCc1ccccc1NC(=O)c1cnn(-c2ccc(F)cc2)c1C1CCNCC1 -7.79%
Cc1cc(C)c(S(=O)(=O)N2CCC(N3CCN(Cc4ccc(F)cc4)C(=O)C3=O)CC2)c(C)c1 2.79%
CC(C)c1ccc(NC(=O)c2cnn3c(C(F)F)cc(-c4ccccc4)nc23)cc1 -1.57%
Cc1ccccc1NC(=O)c1ccc(F)c(S(=O)(=O)N2CCc3ccccc3C2)c1 -41.2%
COC(=O)Cn1ccc2cc(S(=O)(=O)N3CCCCC3)ccc21 -13.8%
Cc1ccc(C(C)C)c(OCCCn2c(=O)oc3ccc(C)cc32)c1 -24.7%
Cc1ccc(C)c(N2CCN(C(=O)C3CCC(CNS(=O)(=O)c4ccc(Br)s4)CC3)CC2)c1 (stereo unspecified) -27.1%
COc1cccc(NC(=O)Cn2c(=O)n(CCCCC(=O)NCc3ccc4c(c3)OCO4)c(=O)c3ccccc32)c1 -13.6%
N#Cc1ccc(NC(=O)c2ccc3c(c2)nnn3C2CCCC2)cc1 -51.3%
CCCS(=O)(=O)N1CC(=O)N(c2cc(C)cc(C)c2)C(C)(C(=O)NC2CCCCCC2)C1 (stereo unspecified) -0.913%
CCOc1ccccc1C(=O)Nc1cc(-c2nc3cccnc3s2)ccc1C 14.1%
CCC(Sc1ncnc2sc3c(c12)CCCC3)C(=O)OCC(C)C (stereo unspecified) -10.5%
CCOC(=O)N1CCC(NC(=O)c2cnn(-c3ccc(C)cc3)c2C2CCN(C(=O)OC(C)(C)C)CC2)CC1 3.24%
Oc1cccc(Nc2cc(-c3ccccc3)ncn2)c1 49.3%
Cc1ccc(NC(=O)CCc2c(C)nc3ncnn3c2C)cc1Cl -3.24%
